Assay results reported in PubChem BioAssay AID492947 (National Center for Advancing Translational Sciences (NCATS), 2010).
Among all 330,000 compounds or so, about 80 (0.02%) were called active. Inconclusive results, whose numbers are uncertain, are shown with a selection of clear calls. The call rests on the fitted dose curve; in most records, active means well fitted activation curve with a large enough effect; inconclusive means small, poorly fitted or top-dose-only effect; inactive means flat fitted curve, though single readings scatter. No potency is given beside an inconclusive call; the fits are too rough.
Further: nearly all actives have a fitted effect of over 65% in size.
Potency means the concentration at half of the fitted maximal effect; tags describe the fitted curve by direction and shape.

These compounds were tested against Beta-2 adrenergic receptor (Homo sapiens) (UniProt P07550) (assay: qHTS assay of beta-arrestin-biased ligands of beta2-adrenergic receptor). Conditions: beta-arrestin recruitment to beta2AR, cell-based reporter; series mostly up to 46.1 µM.
Chain of UniProt P07550 (P07550 whole entry, looked up): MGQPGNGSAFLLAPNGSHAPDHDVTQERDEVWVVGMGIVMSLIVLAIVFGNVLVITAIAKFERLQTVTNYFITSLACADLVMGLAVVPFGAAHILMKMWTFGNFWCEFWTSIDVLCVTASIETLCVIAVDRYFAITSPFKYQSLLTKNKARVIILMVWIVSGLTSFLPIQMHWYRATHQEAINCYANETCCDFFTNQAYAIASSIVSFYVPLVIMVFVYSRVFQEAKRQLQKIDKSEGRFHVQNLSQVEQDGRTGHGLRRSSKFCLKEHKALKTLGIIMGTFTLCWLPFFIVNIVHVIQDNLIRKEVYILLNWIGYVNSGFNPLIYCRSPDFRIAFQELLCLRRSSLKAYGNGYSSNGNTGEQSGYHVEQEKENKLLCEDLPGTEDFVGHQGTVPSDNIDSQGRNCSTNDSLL
How it was run: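 Arrestin-recruitment (Tango) reporter: ligand-bound beta2-AR recruits beta-arrestin, releasing tTA, which upregulates luciferase. Titrations of up to 46 microM incubated 18 hr at 37 degrees C before luminescent readout.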
For O=C1C=CC(O)(c2cc(=O)c3c(O)cc(O)cc3o2)C=C1, the Potency was inconclusive [rising, single point].
With COc1ccc(COCC(O)CN2CC(C)OC(C)C2)cc1OC (stereo unspecified) the Potency was “inactive”.
NC(=S)N=Nc1c(O)n(CCCl)c2ccccc12 was tested, and the Potency was inconclusive [rising, single point].
With COc1ccc(-c2nc(CSCC(=O)NCc3ccc4c(c3)OCO4)c(C)o2)cc1OC the Potency was inconclusive [rising, single point].
COc1ccc(S(=O)(=O)N2CCOCC2)cc1NC(=O)Cc1ccsc1 was tested, and the Potency was inconclusive [rising, single point].
With CCc1n[nH]c(=S)n1/N=C/c1ccc(N(CC)CC)cc1 the Potency was inconclusive [rising, single point].
For O=C(Nc1nccs1)c1ccc2ccccc2n1, the Potency was inconclusive [rising, single point].
With Cc1cc([N+](=O)[O-])ccc1NC(=O)CCC(=O)N1CCCCCC1 the Potency was inconclusive [rising, single point].
For COc1ccccc1N1C(=O)CC(N(O)c2ccccc2)C1=O (stereo unspecified), the Potency was “inactive”.
In the case of Cc1ccc(NC(=S)NC(NC(=O)c2ccccc2)C(Cl)(Cl)Cl)c(C)c1 (stereo unspecified), the Potency is reported as inconclusive [rising, single point].
COc1ccc(NC(=O)CSc2nnc3ccc(-c4ccccn4)nn23)cc1 was tested, and the Potency was “inactive”.
With Cc1nc2c(C#N)cnn2c2c1CCN2CC1CCCO1 (stereo unspecified) the Potency was “inactive”.
With N#C/C(=C/c1ccc(Br)o1)C(N)=S the Potency was inconclusive [rising, single point].
COc1ccc(C(=O)N/N=C/C(Br)=C/c2ccccc2)cc1 was tested, and the Potency was inconclusive [rising, single point].
CC(C)COP(=O)(OCC(C)C)C(Nc1ccccc1)c1ccc(F)cc1 (stereo unspecified) was tested, and the Potency was inconclusive [rising, single point].
In the case of O=C1NC(=NCc2ccccc2)S/C1=C/c1ccc(O)cc1, the Potency is reported as inconclusive [rising, single point].
Nc1ccc(OC(=O)Nc2ccc(O)cc2)cc1 was tested, and the Potency was inconclusive [rising, single point].
In the case of COc1cc(/C=C2/SC(=S)N(Cc3ccccc3)C2=O)ccc1OCC(=O)O, the Potency is reported as “inactive”.
C=CCNC(=S)Nc1ccc(Br)cc1F was tested, and the Potency was “inactive”.
O=[N+]([O-])c1ccccc1OCCOCCOc1cccc2cccnc12 was tested, and the Potency was inconclusive [rising, single point].
For CCOc1ccc(/C=N/NC(=O)Cc2csc(Nc3cccc(C(F)(F)F)c3)n2)c(OCC)c1, the Potency was inconclusive [rising, single point].
